From PubChem BioAssay (NCATS)
Several values for one entry are separate records, joined by “and”; a condition that tells them apart may be missing. Equal values may be shown once. The shares of active, inactive and inconclusive entries below differ from those in the screen. For part of these data: Potencies beside an inconclusive call are fits to weak or partial responses and may not hold up. Activity calls are given as the source filed them. Unless noted, calls come from the whole dose curve; as a rule, active = well fitted curve in the direction sought with a large enough effect; inconclusive = small, poorly fitted or top-dose-only effect, or another doubt; inactive = no such curve, though single readings can be large; an effect the other way counts as inactive or inconclusive.

Columns and labels:
[1] = NFAT Signaling Pathway (AID 444; active = well fitted curve in either direction with a large enough effect, not every such curve was filed as active; inconclusive = small, poorly fitted or top-dose-only effect, or another doubt;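 note: carbachol stimulus at about its EC50 of 1 µM final; % is set by controls: 0 for no effect and ±100 for the full control effect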); conditions: Jurkat NFAT-bla M1, carbachol, beta-lactamase ratio, 5 h; at 17.2 µM (top of the series)
In short: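 Read-out: CCF4 FRET ratio (460 nm/530 nm) after 1 h RT dye loading, used for %activity and AC50 from titration series. Cells: Jurkat NFAT-β-lactamase/M1 line, treated with compound plus 1 uM carbachol for 5 h, 37 °C.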

[2] = qHTS for differential inhibitors of proliferation of Plasmodium falciparum line 7G8 (AID 1815);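 note: parasite growth measured after three days of incubation; plate controls were vehicle wells for no effect and reference inhibitor wells for full effect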
[3] = qHTS for differential inhibitors of proliferation of Plasmodium falciparum line GB4 (AID 1816); conditions: Potency: Plasmodium falciparum GB4 proliferation inhibition;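 note: potency is the fitted concentration of half-maximal effect; parasite growth measured after 72 h incubation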
[4] = qHTS for differential inhibitors of proliferation of Plasmodium falciparum line W2 (AID 1883); conditions: Potency: Plasmodium falciparum W2 proliferation inhibition;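 note: potency is the fitted concentration of half-maximal effect; parasites grown with compound for 72 h before lysis and staining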
[5] = qHTS for differential inhibitors of proliferation of Plasmodium falciparum line HB3 (AID 1886); conditions: Potency: Plasmodium falciparum HB3 proliferation inhibition;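 note: parasites grown with compound for 72 h before SYBR Green readout; plate controls were vehicle for no effect and reference inhibitor for full effect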
[6] = molecular target: RecQ-like DNA helicase BLM (Homo sapiens) (UniProt P54132); assay: qHTS Validation Assay for Inhibitors of Bloom's syndrome helicase (BLM) (AID 2364); note: potency is the fitted concentration of half-maximal effect
In short: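 Forked 20-bp duplex substrate (200 nM, TAMRA/BHQ-2) plus 2 mM ATP added after 15 min compound preincubation with 50 nM enzyme, pH 8.0, poly(dI-dC) 2.5 ug/ml. Strand separation followed by fluorescence (525/598 nm) over 2 h, normalized to enzyme-free and DMSO controls.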

[7] = Validation screen for small molecules that induce DNA re-replication in MCF 10A normal breast cells (AID 463097); note: 0% is about no effect; nearly all actives have a fitted effect of over 60% in size
In short: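 DNA re-replication was detected as a rise in nuclei with elevated Hoechst fluorescence after a 48 hr compound exposure of MCF 10A cells at 37 C.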

[8] = molecular target: ATP-dependent 6-phosphofructokinase (Trypanosoma brucei brucei) (UniProt O15648); assay: qHTS Validation Assay to Find Inhibitors of T. brucei phosphofructokinase (AID 485368); conditions: activity change, negative = inhibition: at 57.5 µM (top of the series)
In short: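 PFK-generated ADP was measured after 45 min at room temperature using ADP-Glo. The reaction contained 0.5 mM F6P and 0.1 mM ATP.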

[9] = Quantitative high throughput screen for delayed death inhibitors of the malarial parasite plastid, 96 hour incubation (AID 488745);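 note: luciferase-expressing P. falciparum in erythrocytes at 2% hematocrit and 0.1% parasitemia; % is set by controls: 0 for no effect and ±100 for the full control effect; nearly all actives have a fitted effect of over 70% in size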
In short: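 Readout is firefly luciferase luminescence from an integrated reporter in P. falciparum; lower signal marks inhibited growth. Cultures at 2% hematocrit and 0.1% parasitemia were treated with compound across two generations (96 h, 37 C, 5% CO2).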

[10] = molecular target: D(1A) dopamine receptor (Homo sapiens) (UniProt P21728); assay: HTS Assay for Allosteric Agonists of the Human D1 Dopamine Receptor: Primary Screen for Potentiators (AID 488982); note: potency is the fitted concentration of half-maximal effect
In short: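 Calcium flux in an inducible, force-coupled HEK293 Trex D1 line (overnight at 30 C): agonist mode is the 180 s kinetic read after compound; potentiator mode is the following 180 s read after dopamine at EC20.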

[11] = qHTS of pediatric cancer cell lines to identify multiple opportunities for drug repurposing: Primary screen for SK-N-SH cells (AID 1347098);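 note: DMSO served as neutral control and bortezomib at 2.3 µM as positive control; % is set by controls: 0 for no effect and ±100 for the full control effect; nearly all actives have a fitted effect of over 65% in size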
In short: (§1)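 Cells (500-1,000/well) rested 5 h, then received compounds for 48 h; metabolically active cells were measured by CellTiter-Glo luminescence. Final concentrations spanned up to 46 µM (MIPE, 11-point) or 0.59 nM-46 µM (NPC, 8-point) in primary screens, 11-point in follow-ups.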

[12] = qHTS of pediatric cancer cell lines to identify multiple opportunities for drug repurposing: Primary screen for Rh18 cells (AID 1347102); note: % is set by controls: 0 for no effect and ±100 for the full control effect; nearly all actives have a fitted effect of over 65% in size
In short: as §1

[13] = qHTS of pediatric cancer cell lines to identify multiple opportunities for drug repurposing: Primary screen for Rh41 cells (AID 1347108);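 note: luminescence drop marks cytotoxic hits; nearly all actives have a fitted effect of over 70% in size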
In short: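 Primary screen of approved and investigational compounds on cells in growth media at 37 degrees C, 5% CO2. MIPE set at 11-point and NPC set at 8-point dilutions; viability scored by ATP-based luminescence at 48 hours.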

[14] = Primary qHTS for small molecule stabilizers of the endoplasmic reticulum resident proteome: Secreted ER Calcium Modulated Protein (SERCaMP) assay (AID 1508630); conditions: SH-SY5Y GLuc-SERCaMP (Gaussia luciferase released on ER calcium loss) secretion, thapsigargin, luminescence; activity change, negative = inhibition: at 38.4 µM (top of the series) unless noted; note: % is set by controls: 0 for no effect and ±100 for the full control effect
In short: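 The SH-SY5Y reporter protocol was run at 3 concentrations up to 38.3 uM (primary) or 11 concentrations (follow-up): 16 h compound, 100 nM thapsigargin for 4 h, then extracellular luciferase luminescence.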

[15] = A High-Content qHTS Against Drug Library for the Identification of Small Molecules that Inhibit DYT1 Early Onset Primary Dystonia-Associated Cell Pathology (AID 1645839; calls by dose curve)
In short: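 High-content imaging quantified EGFP-TorsinA mislocalization in HEK293-derived cells inducibly expressing DYT1 mutant torsinA, after 48 h exposure to compound given together with tetracycline induction. Cell count served as a toxicity channel alongside %pathology.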

[16] = Primary qHTS for inhibitors of nuclear receptor binding SET domain protein 2 (NSD2) in an RCH-ACV wild type WT cells (2C) (AID 1645877); conditions: activity change, negative = cell killing: at 44.9 µM (top of the series) unless noted; note: nearly all actives have a fitted effect of over 70% in size; for activity change, negative = cell killing: % is set by controls: 0 for no effect and ±100 for the full control effect
[17] = system: PA-1; assay: Primary qHTS to identify gynecologic anti-cancer compounds using libraries of approved drugs and bioactive compounds (AID 1345084); conditions: Gynecologic cancer cell panel viability, ATPlite luminescence, 48 h; series mostly up to 57.5 µM; note: nearly all actives have a fitted effect of over 55% in size; note: potency is the fitted concentration of half-maximal effect; for activity change, negative = cytotoxicity: % is set by controls: 0 for no effect and ±100 for the full control effect
In short: (§2)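 Five-point cytotoxicity, 48 h drug exposure at 37 C, 5% CO2, on cells seeded 16 h beforehand. ATP content read by ATPlite luminescence.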

[18] = system: SKOV3; assay: as above; conditions: Gynecologic cancer cell panel viability, ATPlite luminescence, 48 h; series mostly up to 57.5 µM
In short: as §2

[19] = Drug repurposing screens with cells derived from glioblastoma tumor samples (AID 1345199); conditions: GBM patient neurospheres viability, ATP luminescence, 48 h; Potency: tumour line A unless noted; activity, negative = cell killing: at 46 µM (top of the series), tumour line A unless noted; note: potency is the fitted concentration of half-maximal effect; nearly all actives have a fitted effect of over 40% in size
In short: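 Primary testing used CD133+ neurospheres from four GBM patients, seven concentrations, 48 h exposure and ATP-based viability; confirmation added three slower-growing patient lines.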

[20] = P-glycoprotein substrates identified in KB-8-5-11 adenocarcinoma cell line, qHTS therapeutic library screen (AID 1346987); conditions: activity change, negative = cytotoxicity: at 44.5 µM (top of the series); note: % is set by controls: 0 for no effect and ±100 for the full control effect; nearly all actives have a fitted effect of over 65% in size
In short: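 Luminescence from CellTiter-Glo, read 5 min after addition, quantified survival of KB-8-5-11 (P-gp-overexpressing) cells exposed to compounds for 72 h. AC50 was derived from concentration-response curves.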

[21] = Primary fluorescence-based thiol-reactive (MSTI) qHTS assay for identification of artifact compounds. (AID 1845221);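 note: thiol-reactive compounds lower the probe fluorescence signal; nearly all actives have a fitted effect of over 65% in size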
In short: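 Thiol-reactive compounds detected by quenching of 4 uM MSTI fluorescence (525/598 nm) after 1 h room-temperature dark incubation in PBS pH 7.4, 2% DMSO. qHTS titration; percent inhibition Hill-fitted against Acetyl-MSTI/MSTI controls.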

[22] = system: Tov112D; assay: Primary qHTS to identify gynecologic anti-cancer compounds using libraries of approved drugs and bioactive compounds (AID 1345084); conditions: Gynecologic cancer cell panel viability, ATPlite luminescence, 48 h; series mostly up to 57.5 µM; note: nearly all actives have a fitted effect of over 55% in size; note: potency is the fitted concentration of half-maximal effect
In short: as §2

[23] = system: Zika virus NS2B-NS3 protease (unlinked complex); assay: Primary screen GU Rhodamine qHTS for Zika virus inhibitors: Unlinked NS2B-NS3 protease assay (AID 1347159); conditions: Recombinant ZIKV NS2B-NS3 protease, Rhodamine110 substrate fluorescence; activity change, negative = inhibition: at 107 µM (top of the series); note: potency is the fitted concentration of half-maximal effect; nearly all actives have a fitted effect of over 60% in size
In short: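 Unlinked NS2B/NS3, 25 nM; Rhod110 peptide, 1.5 microM; compounds, up to 114 microM. Reaction run 15 min at RT in 10 mM Tris-HCl pH 8.0, 0.01% Tween 20; kinetic fluorescence change fitted with a 4-parameter Hill model.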

[24] = system: Zika virus NS2B-NS3 protease (linked construct); assay: Primary screen NINDS Rhodamine qHTS for Zika virus inhibitors (AID 1347160); note: potency is the fitted concentration of half-maximal effect; nearly all actives have a fitted effect of over 55% in size
In short: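 Single-chain NS2B-NS3 protease, 25 nM, pH 8.0; compounds preincubated 15 min. Activity: Rhodamine110 release from 1.5 microM substrate over 15 min, room temperature, data fitted to 4-parameter Hill.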

[25] = Primary redox qHTS assay for identification of artifact compounds. (AID 1845223); note: potency is the fitted concentration of half-maximal effect
In short: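 Redox-cycling detection via DTT (250 uM final) oxidation coupled to Amplex Red (25 uM)/HRP (250 mU/mL) in HBSS. 15 min preincubation plus 30 min after DTT, room temperature. Ex/Em 525/598 nm; 4-parameter Hill fit against DMSO and 10 uM DA3003.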
Tags give direction and shape of the fitted curve.

UniProt O15648, sequence (O15648 whole entry, looked up): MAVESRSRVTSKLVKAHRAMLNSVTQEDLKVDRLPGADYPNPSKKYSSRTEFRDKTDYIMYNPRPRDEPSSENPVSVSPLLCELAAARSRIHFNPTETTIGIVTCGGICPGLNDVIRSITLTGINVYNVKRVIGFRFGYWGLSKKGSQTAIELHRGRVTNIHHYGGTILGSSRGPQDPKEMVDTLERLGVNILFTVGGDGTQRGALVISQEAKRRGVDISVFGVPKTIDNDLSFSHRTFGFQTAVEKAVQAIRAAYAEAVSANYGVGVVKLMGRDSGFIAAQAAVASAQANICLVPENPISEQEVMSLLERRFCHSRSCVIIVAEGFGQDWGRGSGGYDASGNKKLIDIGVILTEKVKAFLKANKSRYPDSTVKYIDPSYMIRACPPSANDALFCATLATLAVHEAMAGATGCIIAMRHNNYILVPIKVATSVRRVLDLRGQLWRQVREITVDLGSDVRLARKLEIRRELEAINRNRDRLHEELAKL
UniProt P21728, sequence (P21728 whole entry, looked up): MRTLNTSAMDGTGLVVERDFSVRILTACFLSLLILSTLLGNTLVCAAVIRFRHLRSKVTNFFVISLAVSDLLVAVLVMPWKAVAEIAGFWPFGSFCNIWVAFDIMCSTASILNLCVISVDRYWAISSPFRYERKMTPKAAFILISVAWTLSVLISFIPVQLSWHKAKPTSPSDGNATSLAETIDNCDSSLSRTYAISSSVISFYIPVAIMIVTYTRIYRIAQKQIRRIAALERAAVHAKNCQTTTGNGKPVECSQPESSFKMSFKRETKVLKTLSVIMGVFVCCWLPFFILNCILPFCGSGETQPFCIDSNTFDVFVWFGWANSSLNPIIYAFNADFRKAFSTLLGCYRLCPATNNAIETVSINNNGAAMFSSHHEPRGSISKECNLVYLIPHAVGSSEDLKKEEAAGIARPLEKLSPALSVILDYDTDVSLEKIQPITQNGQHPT
UniProt P54132, sequence (P54132 whole entry, looked up): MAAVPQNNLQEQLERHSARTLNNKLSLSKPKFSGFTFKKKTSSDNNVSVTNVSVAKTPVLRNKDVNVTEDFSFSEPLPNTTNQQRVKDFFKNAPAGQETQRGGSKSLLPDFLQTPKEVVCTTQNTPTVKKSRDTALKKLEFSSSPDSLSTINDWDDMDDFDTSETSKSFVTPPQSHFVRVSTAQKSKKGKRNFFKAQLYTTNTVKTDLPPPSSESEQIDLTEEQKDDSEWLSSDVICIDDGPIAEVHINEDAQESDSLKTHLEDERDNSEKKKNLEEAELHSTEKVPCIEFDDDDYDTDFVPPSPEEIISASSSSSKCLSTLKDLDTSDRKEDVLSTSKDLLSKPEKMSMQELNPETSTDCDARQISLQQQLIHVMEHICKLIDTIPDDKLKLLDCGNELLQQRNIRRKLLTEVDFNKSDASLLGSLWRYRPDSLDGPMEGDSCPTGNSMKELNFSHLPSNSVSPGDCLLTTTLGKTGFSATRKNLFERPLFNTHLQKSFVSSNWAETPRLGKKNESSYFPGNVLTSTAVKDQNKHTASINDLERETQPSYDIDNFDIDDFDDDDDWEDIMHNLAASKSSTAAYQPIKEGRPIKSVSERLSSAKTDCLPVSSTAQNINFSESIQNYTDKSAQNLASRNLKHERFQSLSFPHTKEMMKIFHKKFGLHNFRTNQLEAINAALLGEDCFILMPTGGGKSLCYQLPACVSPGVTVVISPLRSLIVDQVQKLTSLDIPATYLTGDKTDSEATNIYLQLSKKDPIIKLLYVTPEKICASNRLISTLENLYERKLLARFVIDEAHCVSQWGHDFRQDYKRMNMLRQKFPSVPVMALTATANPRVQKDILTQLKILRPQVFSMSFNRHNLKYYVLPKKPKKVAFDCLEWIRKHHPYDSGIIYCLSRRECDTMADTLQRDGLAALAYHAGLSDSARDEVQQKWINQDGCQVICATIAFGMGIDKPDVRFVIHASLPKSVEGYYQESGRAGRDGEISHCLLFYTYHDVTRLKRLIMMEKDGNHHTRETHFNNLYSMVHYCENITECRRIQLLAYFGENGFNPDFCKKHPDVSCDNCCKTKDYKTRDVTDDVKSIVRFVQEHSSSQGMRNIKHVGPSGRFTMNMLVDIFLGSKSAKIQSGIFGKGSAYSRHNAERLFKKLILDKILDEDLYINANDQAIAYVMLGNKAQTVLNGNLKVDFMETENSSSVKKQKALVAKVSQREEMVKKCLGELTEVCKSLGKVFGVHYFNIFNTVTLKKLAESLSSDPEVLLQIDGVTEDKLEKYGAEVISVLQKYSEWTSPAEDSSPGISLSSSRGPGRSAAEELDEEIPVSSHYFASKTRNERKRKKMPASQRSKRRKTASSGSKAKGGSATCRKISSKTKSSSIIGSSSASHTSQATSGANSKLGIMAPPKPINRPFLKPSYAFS

c1ccc2c(c1)CCCC2C1=NCCN1 (stereo not drawn)
inactive: Potency [2] | Potency [5] | Potency [7] | Potency [8] | Potency [9] | Potency [11] | Potency [12] | Potency [13] | Potency [14] | Potency [15] | Potency [16] | Potency [17]
inconclusive: activity change, negative = inhibition [1] -30.6% [inhibitor] | Potency [3] 14.1 µM [inhibitor, partial curve] | Potency [4] 17.8 µM [inhibitor, single point] | Potency [6] 0.0032 µM [inhibitor, full curve, poor fit] | Potency [10] 2.59 µM [activator, partial curve] | Potency [18] 6.31 µM [rising, single point] | Potency [19] 7.94 µM [inhibitor, full curve]

CCC[C@@H]1C[C@@H](C(=O)N[C@@H]([C@H]2O[C@H](SC)[C@H](OP(=O)(O)O)[C@@H](O)[C@H]2O)[C@H](C)Cl)N(C)C1
inconclusive: Potency [19] 11.2 µM [inhibitor, partial curve] and 25.1 µM [inhibitor, partial curve]
inactive: Potency [20] | Potency [16] | Potency [21] | Potency [17] | Potency [18] | Potency [22]

C[C@@H]1O[C@@H](O[C@H]2[C@H](O[C@H]3[C@H](O[C@H]4CC[C@@]5(C)C(CC[C@]6(C)C5CC=C5[C@@H]7CC(C)(C)CC(=O)[C@]7(C)CC[C@]56C)[C@@]4(C)CO)O[C@H](C(=O)O)[C@@H](O)[C@@H]3O)O[C@H](CO)[C@H](O)[C@@H]2O)[C@H](O)[C@H](O)[C@H]1O (stereo partly drawn)
inactive: activity change, negative = cytotoxicity [18] 0.762% [at 11.6 µM]
inconclusive: Potency [23] 6.31 µM [inhibitor, full curve] | Potency [24] 3.91 µM [inhibitor, partial curve] | Potency [25] 1.6 µM [activator, full curve, poor fit] | Potency [17] 2.24 µM [rising, partial curve, poor fit]

CCOc1nc2cccc(C(=O)O)c2n1Cc1ccc(-c2ccccc2-c2noc(=O)[nH]2)cc1
inactive: Potency [17] | Potency [18]
